The results in this text go back to PubChem BioAssay AID1240 (Sanford-Burnham Center for Chemical Genomics, 2008).

Structures are written as SMILES. The whole screen tested about 50,000 compounds, of which about 800 (1.6%) showed an effect of 50% or more. Some of the results follow.

The assay deals with Bcl-2-like protein 10 (Homo sapiens) (UniProt Q9HD36). Put plainly: TR3 peptide-Bcl-B binding displacers, biochemical primary FP assay, phenotype converters (AID 1240).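 Further: 0% = Bcl-B with tracer peptide and DMSO and 100% = tracer peptide lacking Bcl-B.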 The note with it: GST-Bcl-B / FITC-TR3 peptide fluorescence polarization; stronger effect = higher value; compound at 3.75 mg/L. In general terms: In fluorescence polarisation assays a small probe gives low polarisation when free and higher when bound to something large.
Chain of UniProt Q9HD36 (Q9HD36 whole entry, looked up): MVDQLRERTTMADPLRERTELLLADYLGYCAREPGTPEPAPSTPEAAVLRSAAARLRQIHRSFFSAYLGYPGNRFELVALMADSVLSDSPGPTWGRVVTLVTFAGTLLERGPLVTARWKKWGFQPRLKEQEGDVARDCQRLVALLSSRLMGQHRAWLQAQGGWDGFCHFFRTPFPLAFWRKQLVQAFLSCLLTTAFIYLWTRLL
On to `Cc1c(OCC(N)=O)ccc2c3c(c(=O)oc12)CCC3`, for which the displacement is 8.3%.
The same measure for `CC(=O)Nc1ccc(C(=O)N2CC(C)CC(C)C2)cc1` (centres undefined): 13.2%; for `Cc1cc(C)c(S(=O)(=O)NCC2CCCO2)c(C)c1` (centres undefined): -8%.
With `COc1ccccc1N(CC(=O)Nc1ccc(F)c(Cl)c1)S(=O)(=O)c1ccccc1`, the displacement was -14.3%.
Turning to `Cc1ccc(-c2cc(C(=O)Nc3cccc(F)c3)c3ccccc3n2)o1`, the displacement is 11.9%.
The same measure for `Cc1ccc(N2C3=[N+](CCCCC3)CC2(O)c2cccc([N+](=O)[O-])c2)cc1` (centres undefined): 12.2%; for `COc1cccc(/C=c2\sc3nc4ccccc4n3c2=O)c1OC`: 19%.
The same measure for `O=C(c1ccc(Cl)cc1)N1N=C(c2ccc([N+](=O)[O-])cc2)CC1(O)C(F)(F)F` (centres undefined): 4.5%; for `O=C(CN1C(=O)c2ccccc2C1=O)Nc1nc(-c2ccccc2)cs1`: -6.7%; for `O=S(=O)(N/N=C/C=C/c1ccccc1)c1ccc(Cl)cc1`: 1.6%.
The same measure for `CCOC(=O)c1c(NC(=O)c2ccccc2C)sc(C(=O)Nc2ccccc2OC)c1C`: -6.4%; for `CCOC(=O)C1=C(C)N(C)C(=O)NC1c1ccc(OC)c(OC)c1OC` (centres undefined): 5.1%; for `O=C(Nc1cccc(C(F)(F)F)c1)c1cc2c(ccc3ccccc32)oc1=O`: -3%.
For `Cc1cccc2sc(NC(=O)CCC(=O)O)nc12`, the displacement is -14.8%.
The same measure for `CC1=C(C(=O)Nc2ccc(Cl)cc2)C(c2cccc3ccccc23)NC(=O)N1` (centres undefined): -5.7%.
With `Cc1ccc(C(=O)N2CCN(c3ccccn3)CC2)cc1[N+](=O)[O-]` the figure was -11.5%.
With `COc1ccc(C(=O)c2ccc(N3CCCCC3)c([N+](=O)[O-])c2)cc1` the figure was -6.4%; with `O=C(Cc1ccccc1)N1N=CCC1(O)c1ccc(Cl)cc1` (centres undefined), -13.4%.
In the case of `CCOc1ccc(N2C(=O)CC(N3CCC(C(N)=O)(N4CCCCC4)CC3)C2=O)cc1` (centres undefined), the displacement was -11.7%.
The same measure for `C#CCOc1ccc(/C=C2\C(=O)NC(=O)N(c3ccc(C)cc3)C2=O)cc1OCC`: 4.9%; for `CC1(C)c2ssc(=S)c2-c2ccccc2N1C(=O)COc1nc2ccccc2s1`: -6.4%.
The same measure for `COC(=O)c1c(NC(=O)c2ccccc2F)sc2c1CCCCC2`: -4.8%; for `COc1ccc(CC(=O)Nc2ccc(NC(=O)c3ccc(Br)cc3)cc2)cc1OC`: 12.9%.
For `Cc1ccc(C(=O)N2c3c(C)cccc3C(Nc3ccccc3C)CC2C)cc1` (centres undefined), the displacement is -6.8%.
As to `CCn1c2ccccc2c2cc(CNCCc3cccc(F)c3)ccc21`, the displacement worked out at 8.5%.
The same measure for `COC(=O)C1=C(C)N(Cc2ccccc2)C(=O)/C1=C\c1cccc([N+](=O)[O-])c1`: 2.4%; for `Cn1c2c(c(=O)[nH]c1=O)C(c1cccc(Cl)c1Cl)C1=C(N2)c2ccccc2C1=O` (centres undefined): 14.9%.
The same measure for `Cc1ccc(S(=O)(=O)Nc2ccc(Br)cc2C(=O)c2ccccc2)cc1`: 14.5%; for `O=C(Nc1ccc(I)cc1)c1ccc(Cl)cc1Cl`: 6.9%.
Turning to `Cc1ccc(S(=O)(=O)N/N=C/c2ccc(OS(=O)(=O)c3ccc([N+](=O)[O-])cc3)cc2)cc1`, the displacement came out at 4.8%.
With `Cc1cc(OCC(=O)Nc2cccc(Cl)c2C)ccc1Cl` the figure was 1.4%.
With `O=C(Cc1ccc(F)cc1F)n1nnc2ccccc21` the figure was -6%; with `Cc1ccc(NS(=O)(=O)c2ccc3c(c2)OCCO3)cc1`, 8.3%.
Consider `CC(=O)Nc1ccc(C(=O)Nc2ncc([N+](=O)[O-])s2)cc1`, for which the displacement amounted to 18.6%.
The same measure for `O=C(CCCN1C(=O)c2cccc3cccc(c23)C1=O)OC/C=C/c1ccccc1`: 6.6%; for `COc1ccccc1C(=O)NN1C(=O)/C(=C2/C(=O)N(CC(=O)O)c3ccccc32)SC1=S`: 4.2%.
For `O=C(/C=C(/O)c1ccccc1)C(=O)Nc1ccc(Br)cc1`, the displacement turned out to be 9%.
With `Cn1c(=S)n(CCC(=O)O)c2ccccc21` the figure was -1.4%; with `Cc1c(NC(=S)Nc2ccc(Cl)cc2)c(=O)n(-c2ccccc2)n1C`, -6%.
The same measure for `O=C(Nc1cc(Cl)ccc1O)c1ccc([N+](=O)[O-])cc1`: -12.5%; for `COC(=O)C1=CN(Cc2ccc(C)cc2)C=C(C(=O)OC)C1c1ccc(F)c(F)c1`: 9.4%; for `CCC(C)c1ccccc1OCC(=O)Nc1cc(C(=O)O)cc(C(=O)O)c1` (centres undefined): 12.6%.
In the case of `CCCCOC(=O)Cn1c(=N)n(CCN(CC)CC)c2ccccc21`, the displacement is -12.3%.
With `CC(=O)Oc1ccc(-c2cccc(C(=O)NCCO)c2)cc1` the figure was 9.9%; with `Cc1cc(/C=N/NC(=O)CC#N)c(C)n1-c1cc(Cl)cc(Cl)c1`, -17.8%; with `Cc1cc(Br)ccc1S(=O)(=O)n1nnc2ccccc21`, 3.9%.
The same measure for `Cc1cc(C=O)c(C)n1-c1ccc(Br)c2ccccc12`: 20.5%; for `O=C1C=CC(=O)C(c2cccc(C(F)(F)F)c2)=C1`: 14.9%.
Regarding `CC(NC(=O)c1ccccc1Cl)C(=O)O` (centres undefined), the displacement is 8.1%.
In the case of `C(=NN1CCN(Cc2ccccc2)CC1)c1ccccc1`, the displacement is 11.1%.
The same measure for `O=C1CC(NCCc2ccccc2)C(=O)N1CCc1ccccc1` (centres undefined): 5.1%; for `O=C(O)CCCN1C(=O)/C(=C/c2ccc3c(c2)OCO3)SC1=S`: 6.1%.
The same measure for `COc1ccc(Cl)cc1C(=O)Nc1sc(C)c(C)c1C#N`: 11%; for `Cc1ccc2c(Cl)c(C(=O)Nc3nc4ccc(Br)cc4s3)sc2c1`: 19.9%.
With `COc1ccc(OC)c(N=Cc2c(O)n(-c3ccccc3C)c(=O)[nH]c2=O)c1` the figure was 7.3%; with `CCCCOC(=O)c1ccc(NC(=O)c2cc(I)ccc2Cl)cc1`, 10.6%; with `CN(C)c1ccc(/C=N/N=C2/NC(=O)C(Cc3ccc(Cl)cc3Cl)S2)cc1` (centres undefined), 1.8%.
As to `NC(=O)c1ccccc1NC(=O)c1cc(Cl)ccc1Cl`, the displacement was -2.9%.
Regarding `COc1ccccc1C(=O)Nc1cc(-c2nc3cc(Cl)ccc3o2)ccc1C`, the displacement was determined as 24.1%.
With `CC(=O)Nc1ccc(S(=O)(=O)NCCc2ccc(S(N)(=O)=O)cc2)cc1` the figure was 18.6%; with `N#CSC(C#N)Cc1ccc([N+](=O)[O-])cc1` (centres undefined), 3%.
The same measure for `COC(=O)c1ccccc1NC(=O)c1c(Cl)cccc1Cl`: 11.4%; for `COc1cccc(/C=C2\SC(=S)N(c3cccc(C)c3)C2=O)c1`: 14.9%.
Consider `Cc1ccccc1NC(=O)c1c(NC(=O)c2ccc([N+](=O)[O-])cc2)sc2c1CCC2`, for which the displacement came out at 23.3%.
Regarding `N#CC(C#N)=Cc1ccc(-c2ccc(S(N)(=O)=O)cc2)o1`, the displacement is -0.4%.
As for `CCN(CC)C(=O)c1c(-c2ccccc2)noc1C`, the displacement was -4.1%.
The same measure for `Cc1ccc(/C(O)=C2\C(=O)C(=O)N(c3nccs3)C2c2cccs2)cc1` (centres undefined): 17.3%; for `CC1=C(C(=O)Nc2ccc(Cl)cc2)C(c2ccccc2F)NC(=S)N1` (centres undefined): -11.6%; for `O=C(COc1ccccc1)N1N=C(c2ccccc2)CC1(O)C(F)(F)F` (centres undefined): -10.8%.
The same measure for `CCCn1c(/N=C/c2cccs2)nc2ccccc21`: 6.8%.
The same measure for `O=c1[nH]c(N2CCCCCC2)nc2ncn(Cc3ccccc3)c12`: -2.9%; for `CC(C)Oc1ccccc1/C=C/c1nc(O)c([N+](=O)[O-])c(=O)[nH]1`: -12.3%; for `O=C(Nc1ccc2c(c1)OCCO2)c1cc2ccccc2o1`: -6.3%.
With `Cc1ccc(Cc2cnc(NC(=O)c3ccccc3)s2)cc1`, the displacement stood at 9.2%.
With `COC(=O)c1ccccc1Nc1ccn2c(=O)c3ccccc3nc2n1`, the displacement turned out to be 17.6%.
The same measure for `COc1ccc(/C=C2\SC(N3CCCCCC3)=NC2=O)c(OC)c1`: -4.9%; for `CC(=O)Nc1cccc(/C(C)=N/N=C2/NC(=O)C(CC(=O)Nc3ccc(Cl)cc3Cl)S2)c1` (centres undefined): -6.3%.
With `CC1=NN(c2nc(-c3ccc(Br)cc3)cs2)C(=O)/C1=C\c1ccc2c(c1)OCO2` the figure was 9%; with `Cc1cc(OCc2nc(-c3ccncc3)no2)ccc1Br`, 11.4%.
The same measure for `N/C(=N\OC(=O)c1ccc(F)cc1)c1ccncc1`: -16.6%; for `O=C(CSCc1ccc(Br)cc1)Nc1ccc(I)cc1`: 3.8%.
With `CCOc1ccccc1/C=C1/SC(=S)N(NC(=O)c2ccccc2C)C1=O`, the displacement stood at 1.4%.
`CCOC(=O)c1ccccc1NC(=O)c1cnn2c1NC(c1ccccc1)CC2C(F)(F)F` (centres undefined): the displacement is -3.1%.
With `CCOC(=O)C1=C(C)N(C2CCCCC2)C(=O)C1`, the displacement is 5.4%.
The same measure for `COc1ccc(N(CC(=O)N2CCCC2)S(=O)(=O)c2ccc(C)cc2)c(OC)c1`: -3.4%; for `CCCC(=O)c1ccc(N2CCN(C(=O)c3cccs3)CC2)c(F)c1`: -2.9%.
With `Cc1nn(C)c(C)c1Sc1ccc(Br)cc1` the figure was -8.7%.
With `CCOC(=O)c1c(NC(=O)c2ccc(Cl)cc2)sc(C(=O)Nc2ccc3c(c2)OCO3)c1C` the figure was -8.9%; with `O=C1NC(=O)N(c2cccc(F)c2)C(=O)/C1=C/c1ccc(O)c(Cl)c1`, 8.3%; with `Cc1cc(-c2ccccc2)nc(N/N=C/c2c(O)ccc3ccccc23)n1`, -11.6%.
Consider `O=C(C1CCCO1)N1CCN(C(c2ccccc2)c2ccccc2)CC1` (centres undefined), for which the displacement was -3%.
With `Cc1[nH]n(-c2ccccc2)c(=O)c1C=Nc1cccc(Br)c1` the figure was -4.4%; with `COc1ccc(C(=O)/C=C/c2ccco2)cc1OC`, 5.9%.
The same measure for `O=C(NCCCn1ccnc1)C(=O)Nc1ccc(Br)cc1`: 11.6%.
With `O=C(Nc1ccc(Cl)c(Cl)c1)C1C(c2ccccc2)C1(Cl)Cl` (centres undefined) the figure was 2.8%; with `O=C1/C(=C/c2cc3c(cc2[N+](=O)[O-])OCO3)Sc2ccccc21`, 1.5%; with `CC(C)(C)c1ccc(OCC(=O)NCCO)cc1`, -0.3%.
As to `O=C(NCCCc1ccccc1)c1ccccc1`, the displacement was -1.3%.
The same measure for `COCCNC(=O)c1cnn2c1NC(c1ccc(OC)c(OC)c1)CC2C(F)(F)F` (centres undefined): -1.3%; for `CCOC(=O)C1=C(O)/C(=C/c2ccc(OC)c(OC)c2)SC1=Nc1ccc([N+](=O)[O-])cc1`: 22.8%; for `O=C(Oc1ccccc1C(=S)N1CCOCC1)c1ccc([N+](=O)[O-])cc1`: 14.4%.
With `O=C(c1cccnc1)N1CCN(C(=O)c2ccccc2F)CC1` the figure was -0.4%; with `CC(CN1CCCCCC1)C(=O)c1ccccc1` (centres undefined), 11.2%; with `O=C(Nc1ccc(NS(=O)(=O)c2ccc(Cl)cc2)cc1)c1ccccc1`, 1.7%.
With `CCOc1ccc2cc(S(=O)(=O)n3nnc4ccccc43)ccc2c1` the figure was -6.7%.
`Cc1cc(OCC(=O)NCc2ccccc2)cc(C)c1Cl`: the displacement was 10.6%.
The same measure for `COc1cccc(/C=N/Nc2nc(N3CCCCC3)nc(N3CCCCC3)n2)c1`: 0.9%; for `Cc1cc(C)nc(NC(=O)C2C3C=CC(C3)C2C(=O)O)c1` (centres undefined): -2.3%; for `CCOC(=O)c1ccc(N2C(=O)CC(Sc3nc4ccc(OCC)cc4s3)C2=O)cc1` (centres undefined): -5.3%.
